Sequences and labels used below:
B1: LINE1-mini (parent)
chain: GGCAGAGCUCAACACAGCGUGGCAAAGUGGCUGUGGCUAGACUGCC

The source gives no read counts; variants with many changes may rest on few reads.

The variants in the data set derive from B1. The data set is described as follows: self-cleavage, relative activity (ratio to wild type); higher = more cleavage; in vitro, sequencing; the parent is a self-cleaving ribozyme.
A24C G30A U34G G44A: the self-cleavage turned out to be 0.03.
With G5U U20A G27C C37U the figure was 0.02; with A14C A16G U20A C37A, 0.1.
In the case of A4U A11C G22A C42G, the self-cleavage came out at 0.03.
As for G5C A25U U38C, the self-cleavage stood at 0.02.
Take G7U U9G C15U U43C: the self-cleavage stood at 0.09.
Take A11G G30C G40U: the self-cleavage worked out at 0.02.
Regarding G22U A26G C42U, the self-cleavage was 0.54.
C3U C8U A12C G17A C18U C23G G30C U43A: the self-cleavage was found to be 0.02.
Take U20A G22A U38C G40A: the self-cleavage came to 0.2.
Regarding U9C G35A C37A C46G, the self-cleavage turned out to be 0.04.
Regarding G5U G35C G36A, the self-cleavage was determined as 0.08.
As for G2A G5A G27C, the self-cleavage was determined as 1.68.
For A6G A12U A14U A16U C23U G29U U34A G35U, the self-cleavage was 0.01.
Take G17A G22A G40C: the self-cleavage stood at 0.03.
Regarding G2A A6C G27U, the self-cleavage was 0.97.
The same measure for G17A A24G U34G G35U: 0.01; for A6C G29U G35U U38G: 0.02.
Consider G5U C23A C31U U32A, for which the self-cleavage is 0.04.
Regarding G2C A4C A24C G30A C31G G44A C46U, the self-cleavage turned out to be 0.02.
Turning to C15U G30A G35C, the self-cleavage turned out to be 0.1.
With G7U G27U G33U, the self-cleavage was determined as 0.06.
Regarding G2U G7U G19U A26C C31U, the self-cleavage turned out to be 0.02.
With G5C U9A G36C the figure was 0.06; with G5A C13U C15G C31G, 0.01; with C3A G30A C42G, 0.13.
Consider U20C G22A C46U, for which the self-cleavage was 0.46.
Take C3A A11U C13G G21A U34C: the self-cleavage was 0.03.
For the variant G2A G5U C13U G30A C31U C42U C45G, the self-cleavage stood at 0.09.
The same measure for C13U A16U U20C U32G A41U G44U: 0.02; for C10U A14U C18A G33C C42A: 0.03.
The same measure for G17U A24U G27A: 0.21; for G2A A14G G27C G29A G40A A41U: 0.06.
On to C3A G5U G7A U9C U20G A39G, for which the self-cleavage worked out at 0.02.
With U32A G33C C45U, the self-cleavage was 0.03.
With G22A C42U U43C G44A, the self-cleavage was found to be 0.09.
On to G7A A14C A16C U34G, for which the self-cleavage turned out to be 0.02.
As for G1C A16U G30C, the self-cleavage came to 0.03.
On to G5U C8U U9C U34A G40C U43A G44A, for which the self-cleavage amounted to 0.
In the case of A26G G33U G40A, the self-cleavage was found to be 0.03.
For the variant G7A A14C A26G U34C G44C, the self-cleavage was found to be 0.08.
The same measure for A4U G7U C31G: 0.08; for C23A A39U C45U: 0.78; for G2C C15G C23G A25G U38C: 0.02.
As to A12C C13A C18U G21U C23U G30A U38C C45G, the self-cleavage was 0.01.
For G2U U28A G36A G40A, the self-cleavage was determined as 0.
For the variant C13A C18U G30A G35C U43A, the self-cleavage came out at 0.11.
For the variant A14G G30U G36A, the self-cleavage came to 0.
As to C3A G7C A39C, the self-cleavage was 0.12.
C3U A4U A39G: the self-cleavage was determined as 0.11.
The same measure for C13U A24G G27A: 0.03; for C23G G27U U32C: 0.08.
Turning to G2A G22C G35C C37U C45U, the self-cleavage is 0.06.
Regarding C3U A16U U38C, the self-cleavage is 0.07.
C10U C23U G36A: the self-cleavage was found to be 0.03.
U28C G29U C37A U38C C45A C46U: the self-cleavage is 0.03.
Regarding G2U A6C U34C C45U, the self-cleavage worked out at 0.01.
For G2C A26U G30U, the self-cleavage turned out to be 0.12.
The same measure for A4C U9A C15U G19A G35A: 0.03.
Take A4G G7A G29C A39C: the self-cleavage came to 0.05.
As for G1C A14U U20A C31A G33A, the self-cleavage amounted to 0.01.
The same measure for A12G U20G A25C A26U C31U C37G: 0; for G7C C13A C23G C42A: 0.19; for G1U G40A G44U: 0.06.
Regarding A4C A14C G19A G22U, the self-cleavage amounted to 0.
With G5A A6G A39U the figure was 0.05; with A12C C18G G40U, 0.01.
The same measure for G7U U34A C37U: 0.02.
G2C G7A C18A A24G G40U: the self-cleavage was determined as 0.08.
Turning to U20A G22A G29U, the self-cleavage turned out to be 0.29.
For the variant A14G A24G G33U C45U, the self-cleavage was 0.07.
Regarding G5A A12U C45U, the self-cleavage was 0.02.
In the case of C18A G22U A25U C42U, the self-cleavage amounted to 0.87.
For the variant G7C U20G G21C C37U, the self-cleavage was determined as 0.
With G7U A14U G17U A24C G27U C42A C46U the figure was 0.11; with C13U G30U G36U A41G, 0.06; with G7U C37A G40A, 0.12.
With U20A A24U C31A, the self-cleavage amounted to 0.
For the variant C8A C23A U32A, the self-cleavage was 0.09.
With G29U U38G G44U the figure was 0.03; with A12C C31A C45A, 0.01.
On to G5U A11G A16C C31U, for which the self-cleavage worked out at 0.04.
Turning to A12C A25C U32G C46U, the self-cleavage was found to be 0.01.
G7U A12G G22U C37G C45A: the self-cleavage turned out to be 0.06.
With G21A A25C G33C, the self-cleavage turned out to be 0.03.
Regarding C18U G27U G36C, the self-cleavage turned out to be 0.03.
Consider U9C G17U G29U U38A, for which the self-cleavage is 0.03.
With G22A G33U U34A G35A A41U the figure was 0.03.
For C31A C42U U43G, the self-cleavage stood at 0.1.
Consider C3A A4G C10G U28A, for which the self-cleavage was 0.03.
With A4G G7A C15U A41U the figure was 0.16.
In the case of U20A A39U G40U C46A, the self-cleavage turned out to be 0.05.
The same measure for C31A U32C U38A: 0.01; for G2A G7U C15A: 0.07; for C3G C10U C13U: 0.06.
Consider C10A G21U C42G, for which the self-cleavage is 0.01.
As for C10U A16G U28C, the self-cleavage is 0.09.
Turning to C10G C15A G21U A26C U32A G33C, the self-cleavage was 0.01.
Consider C8G C10A C18A G29C, for which the self-cleavage was 0.01.
As to C31U G40U A41U C42U, the self-cleavage is 0.02.
With C8A C13U C31U G44U the figure was 0.15; with U9G G19A U38C, 0.02; with G27A G33C C37U A39C, 0.03.
Regarding U9G C18G C23U U28A G29A G35A, the self-cleavage is 0.1.
C10A G35U C42U: the self-cleavage is 0.01.
In the case of G29A A39U C45U, the self-cleavage amounted to 1.13.
For the variant G5U G29U U32A, the self-cleavage was 0.06.
For G2C C10G A24G C31U C46G, the self-cleavage amounted to 0.01.
With G1C G19C G33U the figure was 0.04; with A11C A24U G27U G35U A39G G44A, 0.
The same measure for G1C C8U G29C A39G: 0.
For G19U A24U G29A C31G G35A, the self-cleavage was determined as 0.08.
With C13A A16G C37A G40U, the self-cleavage amounted to 0.01.
For the variant C8U A16C G29A C31U G33C, the self-cleavage was 0.15.
With G1A C13U A41G the figure was 0.08; with G17C C31A U32A, 0.37.
Consider A12U C15U U32G G35U G36U, for which the self-cleavage was found to be 0.01.
For the variant A11G C15A A25C C46G, the self-cleavage came to 0.01.
Regarding A6C A14U G27U G29A C31G G36C A39C, the self-cleavage was found to be 0.02.
As for G5A C13A G29U G35A C42G U43A G44U, the self-cleavage came to 0.11.
Turning to A4U C15U C23A G29U, the self-cleavage was 0.1.
U9A U20A G35C: the self-cleavage is 0.17.
As to A16G G21C A24U C31U C42A C46A, the self-cleavage was found to be 0.
For G5U U9C C23G A24G A26C, the self-cleavage came out at 0.01.
As for G2A G33A C46A, the self-cleavage was determined as 0.25.
As to C8A C10U C13G, the self-cleavage worked out at 0.12.
Regarding C3A G7U G36C C45G, the self-cleavage was determined as 0.07.
Turning to U9A G19U C23A C42U, the self-cleavage stood at 0.22.
For A14G G33U C46G, the self-cleavage stood at 0.02.
Regarding C23U C31U U32C A39G, the self-cleavage came out at 0.02.
As to A16G C18U G30C G35A, the self-cleavage is 0.02.
Consider U20C U38A G44A, for which the self-cleavage amounted to 0.16.
On to A4C U9A G29C C46A, for which the self-cleavage was 0.02.
Take C10U G19A A26G U32A: the self-cleavage came out at 0.05.
Take C10U A11G G44C: the self-cleavage worked out at 0.03.
As to A26G G35U C37G, the self-cleavage was determined as 0.07.
The same measure for G5U C13G U20C G22A G29U G35U: 0.1.
As to C3U G5U C8A G22A A25C C31G A39G, the self-cleavage stood at 0.46.
For A14U U32G C42A, the self-cleavage stood at 0.03.
For G5U G19C G21C A41U C42U, the self-cleavage was 0.08.
For the variant G7U C8G C23A C31A C37A, the self-cleavage was found to be 0.04.
For G1U C10A G19C G22U, the self-cleavage was 0.03.
As for A14C C15U G44C, the self-cleavage came to 0.04.
On to C10A G19C U34C, for which the self-cleavage turned out to be 0.02.
With A11G G17A G27U C45A, the self-cleavage was found to be 0.04.
For the variant G1U G2C G27C G33C, the self-cleavage is 0.02.
C3A A4G G19A U34G: the self-cleavage amounted to 0.02.
With G7A C13U A16G U28C U32A the figure was 1.05.
Turning to G7U C42G C46A, the self-cleavage amounted to 0.22.
As for G1C C13A A16C, the self-cleavage stood at 0.03.
Take G35A G36C C46A: the self-cleavage was 0.05.
Regarding U9G C23A C46U, the self-cleavage worked out at 0.12.
With A14U G21U C23G, the self-cleavage was 0.94.
As to C10A A16U A26C, the self-cleavage came out at 0.03.
As to A4G C15G G22C G44A, the self-cleavage was determined as 0.36.
As for C3G C8G C31A, the self-cleavage is 0.03.
For C15G A25U C31A, the self-cleavage worked out at 0.01.
Take G5A C10A G22U: the self-cleavage turned out to be 0.04.
Take G1C A4C A25U G40C C42A: the self-cleavage came out at 0.01.
In the case of A12C A26G C45U C46A, the self-cleavage was 0.01.
Turning to C10U U28C G40C C46U, the self-cleavage was found to be 0.02.
As for G29U G33C C37G, the self-cleavage was 0.01.
In the case of A14U A26U C37U U38G, the self-cleavage amounted to 0.04.
G19A G22U G29A C31A C37U: the self-cleavage was 0.03.
Consider C10A G19C G30U U34G, for which the self-cleavage came to 0.12.
Consider C13G C18G C23G G35U, for which the self-cleavage was determined as 0.24.
On to G1U C8U A16C, for which the self-cleavage was found to be 0.06.

The record behind these values is the RNAGym collection of RNA variant scans (doi:10.7554/elife.90254).
